# According to the supplement of paper PMC8728848:
# Some of the results follow.
# How the values were obtained:
# Assay in all cases: glycan array binding signal (z-score within array); higher = stronger binding
# Details in all cases: glycan notation: IUPAC condensed, linker removed
# [1] = molecular target: Neu5Ac(a2-6)GlcNAc(b1-4)GlcNAc
# Summary of the method: (§1)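 From the Consortium for Functional Glycomics database, 3228 arrays were curated, keeping only those whose protein sequence was available. Binding is given as a within-array Z-score averaged across arrays sharing a protein sequence and across linkers. Negative Z-scores can be read as non-binding.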
# [2] = molecular target: Neu5Ac(a2-6)GlcNAc(b1-4)GlcNAc(b1-4)GlcNAc
# Summary of the method: as §1
# Neu5Ac(a2-8)Neu5Ac = molecular target: Neu5Ac(a2-8)Neu5Ac
# Summary of the method: as §1
# [3] = molecular target: Neu5Ac(a2-8)Neu5Ac(a2-3)Gal(b1-3)GalNAc(b1-4)[Neu5Ac(a2-3)]Gal(b1-4)Glc
# Summary of the method: as §1
# [4] = molecular target: Neu5Ac(a2-8)Neu5Ac(a2-3)Gal(b1-3)GalNAc(b1-4)[Neu5Ac(a2-8)Neu5Ac(a2-3)]Gal(b1-4)Glc
# Summary of the method: as §1
# [5] = molecular target: Neu5Ac(a2-8)Neu5Ac(a2-3)Gal(b1-4)Glc
# Summary of the method: as §1
# [6] = molecular target: Neu5Ac(a2-8)Neu5Ac(a2-3)Gal(b1-4)GlcNAc
# Summary of the method: as §1
# [7] = molecular target: Neu5Ac(a2-8)Neu5Ac(a2-3)[Gal(b1-3)GalNAc(b1-4)]Gal(b1-4)Glc
# Summary of the method: as §1
# [8] = molecular target: Neu5Ac(a2-8)Neu5Ac(a2-3)[GalNAc(b1-4)]Gal(b1-4)Glc
# Summary of the method: as §1
# [9] = molecular target: Neu5Ac(a2-8)Neu5Ac(a2-8)Neu5Ac
# Summary of the method: as §1
# [10] = molecular target: Neu5Ac(a2-8)Neu5Ac(a2-8)Neu5Ac(a2-3)Gal(b1-4)Glc
# Summary of the method: as §1
# [11] = molecular target: Neu5Ac(a2-8)Neu5Ac(a2-8)Neu5Ac(a2-3)[Gal(b1-3)GalNAc(b1-4)]Gal(b1-4)Glc
# Summary of the method: as §1
# [12] = molecular target: Neu5Ac(a2-8)Neu5Ac(a2-8)Neu5Ac(a2-3)[GalNAc(b1-4)]Gal(b1-4)Glc
# Summary of the method: as §1
# [13] = molecular target: Neu5Ac(a2-8)Neu5Ac(a2-8)Neu5Ac(a2-8)Neu5Ac(a2-3)[GalNAc(b1-4)]Gal(b1-4)Glc
# Summary of the method: as §1
# [14] = molecular target: Neu5Ac(a2-8)Neu5Gc(a2-3)Gal(b1-4)GlcNAc
# Summary of the method: as §1
# [15] = molecular target: Neu5Ac(b2-6)Gal(b1-4)GlcNAc
# Summary of the method: as §1
# Neu5Ac(b2-6)GalNAc = molecular target: Neu5Ac(b2-6)GalNAc
# Summary of the method: as §1
# [16] = molecular target: Neu5Ac9Ac(a2-3)Gal(b1-3)GlcNAc
# Summary of the method: as §1
# [17] = molecular target: Neu5Ac9Ac(a2-3)Gal(b1-4)GlcNAc
# Summary of the method: as §1
# [18] = molecular target: Neu5Ac9Ac(a2-6)Gal(b1-4)GlcNAc
# Summary of the method: as §1
# [19] = molecular target: Neu5Gc(a2-3)Gal(b1-3)GlcNAc
# Summary of the method: as §1
# [20] = molecular target: Neu5Gc(a2-3)Gal(b1-3)[Fuc(a1-4)]GlcNAc
# Summary of the method: as §1
# Neu5Gc(a2-3)Gal(b1-4)Glc = molecular target: Neu5Gc(a2-3)Gal(b1-4)Glc
# Summary of the method: as §1
# [21] = molecular target: Neu5Gc(a2-3)Gal(b1-4)GlcNAc
# Summary of the method: as §1
# [22] = molecular target: Neu5Gc(a2-3)Gal(b1-4)GlcNAc(b1-3)Gal(b1-4)GlcNAc(b1-2)Man(a1-3)[Neu5Gc(a2-3)Gal(b1-4)GlcNAc(b1-3)Gal(b1-4)GlcNAc(b1-2)Man(a1-6)]Man(b1-4)GlcNAc(b1-4)GlcNAc
# Summary of the method: as §1
# [23] = molecular target: Neu5Gc(a2-3)Gal(b1-4)[Fuc(a1-3)]GlcNAc
# Summary of the method: as §1
# [24] = molecular target: Neu5Gc(a2-6)Gal(b1-4)GlcNAc
# Summary of the method: as §1
# Neu5Gc(a2-6)GalNAc = molecular target: Neu5Gc(a2-6)GalNAc
# Summary of the method: as §1
# [25] = molecular target: Neu5Gc(a2-8)Neu5Ac(a2-3)Gal(b1-4)GlcNAc
# Summary of the method: as §1
# [26] = molecular target: Neu5Gc(a2-8)Neu5Gc(a2-3)Gal(b1-4)GlcNAc
# Summary of the method: as §1
# [27] = molecular target: Neu5Gc(a2-8)Neu5Gc(a2-3)Gal(b1-4)GlcNAc(b1-3)Gal(b1-4)GlcNAc
# Summary of the method: as §1
# [28] = molecular target: Neu5Gc(a2-8)Neu5Gc(a2-6)Gal(b1-4)GlcNAc
# Summary of the method: as §1
# [29] = molecular target: Neu5Gc(b2-6)Gal(b1-4)GlcNAc
# Summary of the method: as §1
binder,measurement,setting,value
"AT1G15820(2) (Arabidopsis thaliana), Q9LMQ2 (protein) MAMAVSGAVLSGLGSSFLTGGKRGATALASGVGTGAQRVGRKTLIVAAAAAQPKKSWIPAVKGGGNFLDPEWLDGSLPGDFGFDPLGLGKDPAFLKWYREAELIHGRWAMAAVLGIFVGQAWSGVAWFEAGAQPDAIAPFSFGSLLGTQLLLMGWVESKRWVDFFNPDSQSVEWATPWSKTAENFANYTGDQGYPGGRFFDPLGLAGKNRDGVYEPDFEKLERLKLAEIKHSRLAMVAMLIFYFEAGQGKTPLGALGL",glycan array binding signal (z-score),[1],0.061
same,glycan array binding signal (z-score),[2],-0.681
same,glycan array binding signal (z-score),Neu5Ac(a2-8)Neu5Ac,0.538
same,glycan array binding signal (z-score),[3],-0.073
same,glycan array binding signal (z-score),[4],-0.082
same,glycan array binding signal (z-score),[5],-0.326
same,glycan array binding signal (z-score),[6],0.01
same,glycan array binding signal (z-score),[7],-0.444
same,glycan array binding signal (z-score),[8],-0.224
same,glycan array binding signal (z-score),[9],-0.275
same,glycan array binding signal (z-score),[10],-0.403
same,glycan array binding signal (z-score),[11],-0.105
same,glycan array binding signal (z-score),[12],0.36
same,glycan array binding signal (z-score),[13],-0.097
same,glycan array binding signal (z-score),[14],-0.31
same,glycan array binding signal (z-score),[15],-0.408
same,glycan array binding signal (z-score),Neu5Ac(b2-6)GalNAc,-0.533
same,glycan array binding signal (z-score),[16],-0.048
same,glycan array binding signal (z-score),[17],-0.225
same,glycan array binding signal (z-score),[18],-0.146
same,glycan array binding signal (z-score),[19],0.101
same,glycan array binding signal (z-score),[20],-0.541
same,glycan array binding signal (z-score),Neu5Gc(a2-3)Gal(b1-4)Glc,0.484
same,glycan array binding signal (z-score),[21],0.408
same,glycan array binding signal (z-score),[22],0.352
same,glycan array binding signal (z-score),[23],-0.017
same,glycan array binding signal (z-score),[24],-0.071
same,glycan array binding signal (z-score),Neu5Gc(a2-6)GalNAc,-0.271
same,glycan array binding signal (z-score),[25],-0.522
same,glycan array binding signal (z-score),[26],-0.719
same,glycan array binding signal (z-score),[27],-0.274
same,glycan array binding signal (z-score),[28],-0.382
same,glycan array binding signal (z-score),[29],-0.566
